# In the supplement of paper PMC8728848:
# The list shows a part of the results.
# B1: PX14343H-pdi-506-26-506 (Parabacteroides distasonis) (protein)
# chain: QPTGTMTTDSKLTSKESALALTNSAYLKNTVFNKMTPGWGCNTILLLEYMTGKATSENSQSNYKDFQDLLVSDRSLYIEDWWQDCYAGIANCNLALQKLGEFENLDASLVNGYMAEVKFMRALYYFYLVRIFGDVPKITTVQSELGELQVSRAPVKEIYDEIIIPDLLEAEQSDLAFSDHTGRVSMGAVKALLADVYLTYAGYPLQGGKSYYAESAKRSLEVIKSNEYTLFTDYESLRLPSQNNKGEFIYQVQFSLNKRHNESVRIFLPSRSGISAYDLEYGSLIPTKEFVESFEKGDKRTEEKQYFFTNYKGHPSKFSPGAAELEFMDLNGYYIYKFFDQVAVDNTAKSDLNWSVYRYTDVLLMYAEAQVNADGTPNQQSIDIVNQIRGRAGLAPFKQTNASAFLEEVWDQRYFDLCYENKMWFDMLRTRKIRDDKSGEYVDFIGYKTNWGKVYTETQLLFPIPLSERQANPNLTQNQGY
# Experiments:
# Experiment in all cases: glycan array binding signal (z-score within array); higher = stronger binding
# Details in all cases: glycan notation: IUPAC condensed, linker removed
# [1] = molecular target: Neu5Ac(a2-3)Gal(b1-3)GlcNAc(b1-2)Man(a1-3)[GlcNAc(b1-4)][Neu5Ac(a2-3)Gal(b1-3)GlcNAc(b1-2)Man(a1-6)]Man(b1-4)GlcNAc(b1-4)GlcNAc
# Procedure, shortened: (§1)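 Glycan array data were curated from 3228 arrays in the Consortium for Functional Glycomics database and kept only where the protein sequence was available. Glycan names were converted to IUPAC-condensed notation, and columns mapping to the same glycan were averaged. The binding signal is a within-array Z-score, averaged across arrays of the same protein sequence at different concentrations or buffers and across linkers. Negative Z-scores can be read as non-binding.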
# [2] = molecular target: Neu5Ac(a2-3)Gal(b1-3)GlcNAc(b1-2)Man(a1-3)[Neu5Ac(a2-3)Gal(b1-3)GlcNAc(b1-2)Man(a1-6)]Man(b1-4)GlcNAc(b1-4)GlcNAc
# Procedure, shortened: as §1
# [3] = molecular target: Neu5Ac(a2-3)Gal(b1-3)GlcNAc(b1-3)Gal(b1-3)GlcNAc
# Procedure, shortened: as §1
# [4] = molecular target: Neu5Ac(a2-3)Gal(b1-3)GlcNAc(b1-3)Gal(b1-4)GlcNAc
# Procedure, shortened: as §1
# [5] = molecular target: Neu5Ac(a2-3)Gal(b1-3)GlcNAc(b1-3)GalNAc
# Procedure, shortened: as §1
# [6] = molecular target: Neu5Ac(a2-3)Gal(b1-3)GlcNAc(b1-4)Gal(b1-4)Glc
# Procedure, shortened: as §1
# [7] = molecular target: Neu5Ac(a2-3)Gal(b1-3)GlcNAc(b1-6)GalNAc
# Procedure, shortened: as §1
# [8] = molecular target: Neu5Ac(a2-3)Gal(b1-3)GlcNAc6S
# Procedure, shortened: as §1
# [9] = molecular target: Neu5Ac(a2-3)Gal(b1-3)[Fuc(a1-4)]GlcNAc
# Procedure, shortened: as §1
# [10] = molecular target: Neu5Ac(a2-3)Gal(b1-3)[Fuc(a1-4)]GlcNAc(b1-3)Gal(b1-3)[Fuc(a1-4)]GlcNAc
# Procedure, shortened: as §1
# [11] = molecular target: Neu5Ac(a2-3)Gal(b1-3)[Fuc(a1-4)]GlcNAc(b1-3)Gal(b1-4)[Fuc(a1-3)]GlcNAc
# Procedure, shortened: as §1
# [12] = molecular target: Neu5Ac(a2-3)Gal(b1-3)[GlcNAc(b1-6)]GalNAc
# Procedure, shortened: as §1
# [13] = molecular target: Neu5Ac(a2-3)Gal(b1-3)[Neu5Ac(a2-6)]GalNAc
# Procedure, shortened: as §1
# [14] = molecular target: Neu5Ac(a2-3)Gal(b1-3)[Neu5Ac(a2-6)]GlcNAc(b1-3)[Fuc(a1-3)[Gal(b1-4)]GlcNAc(b1-6)]Gal(b1-4)Glc
# Procedure, shortened: as §1
# [15] = molecular target: Neu5Ac(a2-3)Gal(b1-3)]Neu5Ac(a2-3)Gal(b1-4)]GlcNAc
# Procedure, shortened: as §1
# Neu5Ac(a2-3)Gal(b1-4)Glc = molecular target: Neu5Ac(a2-3)Gal(b1-4)Glc
# Procedure, shortened: as §1
# [16] = molecular target: Neu5Ac(a2-3)Gal(b1-4)GlcNAc
# Procedure, shortened: as §1
# [17] = molecular target: Neu5Ac(a2-3)Gal(b1-4)GlcNAc(b1-2)Man
# Procedure, shortened: as §1
# [18] = molecular target: Neu5Ac(a2-3)Gal(b1-4)GlcNAc(b1-2)Man(a1-3)[GlcNAc(b1-4)][Neu5Ac(a2-3)Gal(b1-4)GlcNAc(b1-2)Man(a1-6)]Man(b1-4)GlcNAc(b1-4)GlcNAc
# Procedure, shortened: as §1
# [19] = molecular target: Neu5Ac(a2-3)Gal(b1-4)GlcNAc(b1-2)Man(a1-3)[Neu5Ac(a2-3)Gal(b1-4)GlcNAc(b1-2)Man(a1-6)]Man(b1-4)GlcNAc(b1-4)GlcNAc
# Procedure, shortened: as §1
# [20] = molecular target: Neu5Ac(a2-3)Gal(b1-4)GlcNAc(b1-2)Man(a1-3)[Neu5Ac(a2-3)Gal(b1-4)GlcNAc(b1-2)Man(a1-6)]Man(b1-4)GlcNAc(b1-4)[Fuc(a1-6)]GlcNAc
# Procedure, shortened: as §1
# [21] = molecular target: Neu5Ac(a2-3)Gal(b1-4)GlcNAc(b1-2)Man(a1-3)[Neu5Ac(a2-6)Gal(b1-4)GlcNAc(b1-2)Man(a1-6)]Man(b1-4)GlcNAc(b1-4)GlcNAc
# Procedure, shortened: as §1
# [22] = molecular target: Neu5Ac(a2-3)Gal(b1-4)GlcNAc(b1-2)[Neu5Ac(a2-3)Gal(b1-4)GlcNAc(b1-4)]Man(a1-3)[GlcNAc(b1-4)][Neu5Ac(a2-3)Gal(b1-4)GlcNAc(b1-2)[Neu5Ac(a2-3)Gal(b1-4)GlcNAc(b1-6)]Man(a1-6)]Man(b1-4)GlcNAc(b1-4)GlcNAc
# Procedure, shortened: as §1
# [23] = molecular target: Neu5Ac(a2-3)Gal(b1-4)GlcNAc(b1-2)[Neu5Ac(a2-3)Gal(b1-4)GlcNAc(b1-4)]Man(a1-3)[GlcNAc(b1-4)][Neu5Ac(a2-3)Gal(b1-4)GlcNAc(b1-4)Man(a1-6)]Man(b1-4)GlcNAc(b1-4)GlcNAc
# Procedure, shortened: as §1
# [24] = molecular target: Neu5Ac(a2-3)Gal(b1-4)GlcNAc(b1-2)[Neu5Ac(a2-3)Gal(b1-4)GlcNAc(b1-6)]Man(a1-6)[Neu5Ac(a2-3)Gal(b1-4)GlcNAc(b1-2)Man(a1-3)]Man(b1-4)GlcNAc(b1-4)GlcNAc
# Procedure, shortened: as §1
# [25] = molecular target: Neu5Ac(a2-3)Gal(b1-4)GlcNAc(b1-2)[Neu5Ac(a2-3)Gal(b1-4)GlcNAc(b1-6)]Man(a1-6)[Neu5Ac(a2-3)Gal(b1-4)GlcNAc(b1-2)Man(a1-3)][GlcNAc(b1-4)]Man(b1-4)GlcNAc(b1-4)GlcNAc
# Procedure, shortened: as §1
# [26] = molecular target: Neu5Ac(a2-3)Gal(b1-4)GlcNAc(b1-3)Gal
# Procedure, shortened: as §1
# [27] = molecular target: Neu5Ac(a2-3)Gal(b1-4)GlcNAc(b1-3)Gal(b1-3)GlcNAc
# Procedure, shortened: as §1
# [28] = molecular target: Neu5Ac(a2-3)Gal(b1-4)GlcNAc(b1-3)Gal(b1-4)GlcNAc
# Procedure, shortened: as §1
# [29] = molecular target: Neu5Ac(a2-3)Gal(b1-4)GlcNAc(b1-3)Gal(b1-4)GlcNAc(b1-2)Man(a1-3)[Neu5Ac(a2-3)Gal(b1-4)GlcNAc(b1-3)Gal(b1-4)GlcNAc(b1-2)Man(a1-6)]Man(b1-4)GlcNAc(b1-4)GlcNAc
# Procedure, shortened: as §1
# [30] = molecular target: Neu5Ac(a2-3)Gal(b1-4)GlcNAc(b1-3)Gal(b1-4)GlcNAc(b1-3)Gal(b1-4)GlcNAc
# Procedure, shortened: as §1
# [31] = molecular target: Neu5Ac(a2-3)Gal(b1-4)GlcNAc(b1-3)Gal(b1-4)GlcNAc(b1-3)Gal(b1-4)GlcNAc(b1-2)Man(a1-3)[Neu5Ac(a2-3)Gal(b1-4)GlcNAc(b1-3)Gal(b1-4)GlcNAc(b1-3)Gal(b1-4)GlcNAc(b1-2)Man(a1-6)]GalNAc
# Procedure, shortened: as §1
# [32] = molecular target: Neu5Ac(a2-3)Gal(b1-4)GlcNAc(b1-3)Gal(b1-4)GlcNAc(b1-3)GalNAc
# Procedure, shortened: as §1
# [33] = molecular target: Neu5Ac(a2-3)Gal(b1-4)GlcNAc(b1-3)Gal(b1-4)GlcNAc(b1-3)[Neu5Ac(a2-3)Gal(b1-4)GlcNAc(b1-3)Gal(b1-4)GlcNAc(b1-6)]GalNAc
# Procedure, shortened: as §1
# [34] = molecular target: Neu5Ac(a2-3)Gal(b1-4)GlcNAc(b1-3)Gal(b1-4)GlcNAc(b1-6)[Gal(b1-3)]GalNAc
# Procedure, shortened: as §1
# [35] = molecular target: Neu5Ac(a2-3)Gal(b1-4)GlcNAc(b1-3)Gal(b1-4)[Fuc(a1-3)]GlcNAc
# Procedure, shortened: as §1
# [36] = molecular target: Neu5Ac(a2-3)Gal(b1-4)GlcNAc(b1-3)GalNAc
# Procedure, shortened: as §1
# [37] = molecular target: Neu5Ac(a2-3)Gal(b1-4)GlcNAc(b1-3)[Neu5Ac(a2-3)Gal(b1-4)GlcNAc(b1-6)]GalNAc
# Procedure, shortened: as §1
binder,measurement,setting,value
B1,glycan array binding signal (z-score),[1],-0.391
same,glycan array binding signal (z-score),[2],-0.308
same,glycan array binding signal (z-score),[3],-0.485
same,glycan array binding signal (z-score),[4],-0.464
same,glycan array binding signal (z-score),[5],-0.443
same,glycan array binding signal (z-score),[6],-0.388
same,glycan array binding signal (z-score),[7],-0.427
same,glycan array binding signal (z-score),[8],-0.488
same,glycan array binding signal (z-score),[9],-0.497
same,glycan array binding signal (z-score),[10],-0.363
same,glycan array binding signal (z-score),[11],-0.239
same,glycan array binding signal (z-score),[12],-0.522
same,glycan array binding signal (z-score),[13],-0.336
same,glycan array binding signal (z-score),[14],-0.271
same,glycan array binding signal (z-score),[15],-0.417
same,glycan array binding signal (z-score),Neu5Ac(a2-3)Gal(b1-4)Glc,-0.335
same,glycan array binding signal (z-score),[16],-0.441
same,glycan array binding signal (z-score),[17],-0.428
same,glycan array binding signal (z-score),[18],-0.339
same,glycan array binding signal (z-score),[19],-0.227
same,glycan array binding signal (z-score),[20],-0.237
same,glycan array binding signal (z-score),[21],4.89
same,glycan array binding signal (z-score),[22],-0.326
same,glycan array binding signal (z-score),[23],-0.423
same,glycan array binding signal (z-score),[24],-0.182
same,glycan array binding signal (z-score),[25],-0.329
same,glycan array binding signal (z-score),[26],-0.347
same,glycan array binding signal (z-score),[27],-0.492
same,glycan array binding signal (z-score),[28],-0.392
same,glycan array binding signal (z-score),[29],-0.03
same,glycan array binding signal (z-score),[30],-0.404
same,glycan array binding signal (z-score),[31],0.107
same,glycan array binding signal (z-score),[32],-0.334
same,glycan array binding signal (z-score),[33],-0.24
same,glycan array binding signal (z-score),[34],-0.344
same,glycan array binding signal (z-score),[35],-0.38
same,glycan array binding signal (z-score),[36],-0.257
same,glycan array binding signal (z-score),[37],-0.272
